# Measurements from PubChem BioAssay AID1346428 (National Center for Advancing Translational Sciences (NCATS), 2018).
# Where “and” joins values, the source holds several entries; their conditions need not be identical. Equal values may be shown once. The campaign covered roughly 48,000 compounds. About 1,200 (2.5%) were called active. Inconclusive results (about 2%) are left out.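 Rule for the calls: active = activation of at least 60% and not above a set upper limit (about 1 call in 100 departs from these limits); inconclusive = activation of 40% to 60%, or above that upper limit; inactive = activation under 40%.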 The list shows a part of the results.
# Molecular target: Probable G-protein coupled receptor 32 (Homo sapiens) (UniProt O75388)
# Test: qHTS for Agonists of Human Resolvin D1 Receptor DRV1; note: 0% is about no effect
# Settings: CHO-K1 GPR32 beta-arrestin PathHunter luminescence, 90 min; at 76.9 µM; hits give high values; zero percent set by DMSO-only wells
# Summary of the method: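 PathHunter enzyme-fragment complementation, CHO-K1 GPR32 stable line; 2,500 cells/well, overnight attach; cpd 90 min 37 °C 5% CO2; detection reagent 1 h RT; chemiluminescence. DMSO = EC0.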
# Chain of UniProt O75388 (O75388 whole entry, looked up): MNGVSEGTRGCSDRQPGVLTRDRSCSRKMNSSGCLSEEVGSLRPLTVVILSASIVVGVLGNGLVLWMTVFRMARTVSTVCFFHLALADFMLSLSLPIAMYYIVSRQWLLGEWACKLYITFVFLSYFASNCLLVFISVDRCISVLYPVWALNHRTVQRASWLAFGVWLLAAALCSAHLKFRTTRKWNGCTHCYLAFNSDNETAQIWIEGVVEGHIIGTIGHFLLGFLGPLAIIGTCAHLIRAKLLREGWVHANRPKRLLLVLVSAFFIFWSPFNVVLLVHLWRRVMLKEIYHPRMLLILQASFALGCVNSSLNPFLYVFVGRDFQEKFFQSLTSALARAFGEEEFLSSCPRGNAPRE
row,SMILES,activation
1,O=C(CCn1ccc2cc(S(=O)(=O)N3CCCC3)ccc21)NCc1cccc(Br)c1,inactive: -25.8%
2,Cn1nnc2c(C(N)=O)ncn2c1=O,inactive: -4.58%
3,COc1ccc(CCNC(=O)CCCCn2c(=O)c3ccccc3n(Cc3ccc(F)cc3Cl)c2=O)cc1OC,inactive: -4.94%
4,Cc1ccc(C(=O)NCC(c2cccnc2)N2CCc3ccccc32)cc1C (centres undefined),inactive: -31.8%
5,Cc1ccc(-c2nc3ncccc3o2)cc1NC(=O)c1cccc(OCC(C)C)c1,inactive: 18.6%
6,Cc1ccc(C)c(Nc2nn3c(=O)c4ccc(C(=O)NC5CCCCC5)cc4nc3s2)c1,inactive: 11.4%
7,Cc1c(C)n(Cc2ccccc2)c2ccc(C(=O)NCc3ccco3)cc12,inactive: -20.9%
8,Cc1cc(NC(=O)c2cc(-c3ccc(Cl)cc3)on2)nn1Cc1ccc(Cl)cc1,inactive: 4.03%
9,CCC1CN(C(=O)Nc2cc(C)cc(C)c2)c2ccccc2O1 (centres undefined),inactive: -35.2%
10,CCc1ccc(NC(=O)Cn2c(=O)n(CCC(=O)NCc3ccc4c(c3)OCO4)c(=O)c3ccccc32)cc1,inactive: -4.89%
11,Cc1c(-c2nsc(NC(=O)c3cccs3)n2)nnn1-c1ccc(Br)cc1,inactive: -6.68%
12,Cc1cccc(CN2CCc3nc(N4CCN(c5ccccn5)CC4)ncc3C2)c1,inactive: 13.2%
13,O=C(NCc1ccccc1Cl)c1ccc2c(O)c(S(=O)(=O)c3ccccc3)c(=O)[nH]c2c1,inactive: 5.16%
14,Cc1ccc(CNC(=O)CN2C(=O)C3CCCCN3c3ccc(C(=O)N4CCCC4)cc32)cc1 (centres undefined),inactive: -24.1%
15,O=C(NCCSc1c(-c2ccc(F)cc2)[nH]c2ccccc12)c1ccc(S(=O)(=O)N2CCOCC2)cc1,inactive: -20%
16,COc1cccc(NC(=O)C2CCN(C(=O)N3CC(C)Oc4ccccc43)CC2)c1 (centres undefined),inactive: -4.42%
17,COc1cccc(Cn2c(=O)n(-c3ccccc3C)c(=O)c3c2c2cc(C)ccc2n3C)c1,inactive: -5.26%
18,Cc1cccc(Cc2c(C)nc3nc(SCc4ccccc4C)nn3c2C)c1,inactive: -19.9%
19,Cc1ccc(C)c(NC(=O)CN(CCc2ccccc2)S(=O)(=O)c2ccccc2)c1,inactive: 17.3%
20,COc1cccc(-n2c(SCc3ccccc3C)nc3c([nH]c4ccccc43)c2=O)c1,inactive: -15.4%
21,CC(=O)c1ccc(NC(=O)CCc2c(C)nc3cc(-c4ccc(Cl)cc4)nn3c2C)cc1,inactive: 24%
22,CC1=C(C(N)=O)C(c2cccc(F)c2)n2nc(SCc3ccccc3)nc2N1 (centres undefined),inactive: -4.36%
23,O=c1cc(-c2ccccc2)n2c(SCc3ccc([N+](=O)[O-])cc3)nnc2[nH]1,inactive: 4.24%
24,COC(=O)c1ccccc1NC(=O)c1ccc2c(c1)CCN2S(=O)(=O)c1ccc(C)cc1,inactive: -3.76%
25,O=C(O)Cn1nc(N2CCN(c3ccc(F)cc3)CC2)ccc1=O,inactive: 4.6%
26,CCc1ccc(C(=O)c2cnc3ccc(C)cc3c2S(=O)(=O)c2ccc(OC)cc2)cc1,inactive: -19%
27,COc1ccccc1CNC(=O)c1cc(Sc2cccc(Cl)c2)nc2ccccc12,inactive: -32.5%

row,SMILES,activation
1,COc1cc(OC)c(NC(=O)C2=C(C)C(=O)OC23CCCCC3)cc1Cl,inactive: -18.2%
2,O=C(CCCn1c(=O)c2sccc2n(Cc2ccc(F)cc2Cl)c1=O)NCc1ccc2c(c1)OCO2,inactive: -18.4%
3,CCCN(CC1CC1)c1nc(C)nc(Nc2c(Cl)cc(Cl)cc2Cl)c1Cl,inactive: -13.9%
4,COc1ccc2cc(CNc3ccc(C)cc3)c(=O)n(CC(=O)Nc3ccc(OC)c(Cl)c3)c2c1,inactive: -35.1%
5,CCCCc1ccc(C(=O)Nc2ccc3nc(N(CC)CC)cc(C)c3c2)cc1,inactive: -5.05%
6,Cc1c(C(=O)N2CCCC2)oc2c1-c1nn(CC(=O)NCc3cccc(F)c3)cc1CC2,inactive: -3.73%
7,Cc1ccc2c(c1)N(C(=O)N1CCC(C(=O)NCCC3=CCCCC3)CC1)CC(C)O2 (centres undefined),inactive: -14.6%
8,CCNC(=O)c1cnc2sc(N3CCC(C)CC3)nn2c1=O,inactive: 12.2%
9,NC(=Nc1ccccc1)Nc1ccccc1,inactive: -18.1% and inactive: -43.4%
10,O=C(Nc1cccc(Cl)c1)c1ccc2nc(Cc3ccccc3)oc2c1,inactive: 21.9%
11,OCc1cnc(SCc2cccc(F)c2)n1Cc1ccc(F)cc1,active: 88.6%
12,O=C(CCc1nc2cccnc2n1Cc1ccccc1)NCc1cccc(Cl)c1,inactive: -12.2%
13,Cc1ccccc1Nc1ncnc2c1c(-c1ccccc1)cn2-c1ccc(F)cc1,inactive: -38.6%
14,CCOc1ccc(CCNc2ncnc3onc(-c4ccc(F)cc4)c23)cc1OCC,inactive: 1.12%
15,CCCCn1c(CNC(=O)C23CC4CC(CC(C4)C2)C3)nnc1SCC(=O)Nc1ccccc1,inactive: -0.346%
16,Cc1ncc(COC(=O)C(C)C)c2cc(C(=O)Nc3ccccc3C(F)(F)F)c(=O)oc12,inactive: -15.2%
17,CCN(CC)CCCNC(=O)CCc1c(C)n(CC)c2cc(-c3ccccc3OC)nn2c1=O,inactive: 19.3%
18,Cc1cccc(N2C(=O)CS(=O)(=O)C23C(=O)N(C)c2ccccc23)c1 (centres undefined),inactive: -5.89%
19,COC(=O)NNC(=O)C1CCC(C)CC1 (centres undefined),inactive: -3.97%
20,CN1c2ccc(Cl)cc2-c2nc(SCC(=O)Nc3cc(F)ccc3F)ncc2S1(=O)=O,inactive: 2.11%
21,CCc1cccc(NC(=O)c2nc(-c3ccncc3)no2)c1,inactive: -8.94%
22,CCOc1ccc(C(=O)Nc2ccc(-c3nc4cc(C(C)C)ccc4o3)cc2)cc1Cl,active: 84%
23,COc1ccc(C2=NN(CC(=O)NCc3ccccc3Cl)C(=O)CC2)cc1,inactive: -15.5%
24,Cc1ccc(CCNC(=O)c2c(C)oc3ncnc(N4CCOCC4)c23)cc1,inactive: -11.5%
25,Fc1cccc(NCc2cccn2-c2nnc(N3CCOCC3)s2)c1,active: 66.3%
26,Cc1ccc(NCc2cccn2-c2nnc(N3CCC(C(=O)NCCc4ccccc4)CC3)s2)cc1,inactive: -32.3%
27,COc1cccc(CNC(=O)N2CCC(CN3CCC(C)CC3)CC2)c1,inactive: -3.11%
